Assay results: ChEMBL document CHEMBL4888484, “Replenishing the malaria drug discovery pipeline: Screening and hit evaluation of the MMV Hit Generation Library 1 (HGL1) against asexual blood stage Plasmodium falciparum ,using a nano luciferase reporter read-out” (2022)
Among all 150,000 compounds or so, about 540 (0.36%) showed an effect of 50% or more. Some of the results follow.

These compounds were tested on Plasmodium falciparum (assay: Primary screen in NF54 nanoGlo assay, in single point, at 2uM, 72h; a lower Z score goes with more inhibition). Conditions: timepoint 72 hour.
Type: functional, Erythrocyte

SMILES | % Inhibition [%] | Z score
CC1CN(CC(O)Cn2cccn2)CC(C)[S+]1[O-] (stereo unspecified) | -5 | 0.53
O=C(c1cccc(F)c1)N1CCCCC[C@@H]1CN1CCCC1 | -1 | 0.17
Cc1cccc(Nc2ccc(NCCNS(=O)(=O)c3ccc4ccccc4c3)nn2)n1 | 4 | -0.61
O=C1CCC(=O)N1C1CCC(NC2CC(c3ccc(F)cc3)C2)CC1 (stereo unspecified) | 4 | -0.46
COC(=O)N1CCCC(C(=O)NC2C3CCC(C3)C2C(=O)OCc2ccccc2)C1 (stereo unspecified) | 1 | -0.17
CCC1(CNC(=O)C[C@H]2CCCO2)CCCC1 | -2 | 0.36
CCN1CCC(NCc2cccs2)CC1 | 21 | -2.78
Nc1cc(N2CCC[C@H](c3ccn[nH]3)C2)nc(N2CCCC2)n1 | -9 | 0.97
Cc1cccc2nc(CN(C)C(=O)c3cn[nH]c3)[nH]c12 | -4 | 0.44
CCCNC(=O)CNC(C)(C)c1ccccc1 | -4 | 0.6
Cc1cccc(N2CCN(C(=O)Cn3ccc4ccc(N5CCOCC5)nc43)CC2)c1C | -2 | 0.23
O=C(NCCc1cscn1)N(Cc1c(F)cccc1F)C1CC1 | -4 | 0.58
CN(C)c1nc2cc(C(=O)NC[C@H](N3CCOCC3)C(F)(F)F)ccc2o1 | -28 | 3.33
CCc1nc2c(N3CCC[C@H](C(=O)c4ccccc4)C3)ncnc2o1 | -6 | 1.1
CCCn1nc(C(=O)O)c2c1CC[C@H](N(C)Cc1nccs1)C2 | -1 | 0.27
Cc1c(Cl)cccc1-n1nc(C2CC2)nc1-c1cncnc1 | -7 | 0.87
O=C(Nc1ccc(-n2nc(OCc3ccc(F)cc3)nc2-c2ccc(C(F)(F)F)cc2)cc1)c1ccc2c(c1)OCO2 | -12 | 1.25
CCc1nc(CCNC(=O)Nc2cccc(CN3CCCC[C@@H]3C)c2)no1 | -8 | 0.68
CCn1nc(CO)c2c1CCN(C(=O)Cc1noc3ccccc13)C2 | -8 | 1.59
CC(C)CN(CC(=O)O)Cc1cccc(O)c1Cl | -14 | 1.78
O=C(NCCN1CC[C@@H](O)C1)c1cc(F)cc(Br)c1F | 9 | -1.03
Cn1cc(C(=O)Oc2ccc([C@H]3CCOC3)cc2)cn1 | -1 | 0.16

SMILES | % Inhibition [%] | Z score
COc1ccccc1N1CCN(C(=O)c2cc3n(n2)CCN(Cc2ccccc2C(F)(F)F)C3=O)CC1 | -7 | 0.65
C[C@@H](CCCO)NC(=O)c1cnsn1 | -2 | 0.39
CCN1C(=O)c2ccccc2N2C(=O)CC[C@@]12C(=O)Nc1nccs1 | 8 | -0.95
O=c1c(NCC2(c3ccncc3)CCCCC2)nccn1C1CC1 | -4 | 0.5
Cc1cnc(CCNC(=O)C2CCOCC2)n1C1CC1 | -10 | 1.5
COc1ccc(CCNC(=O)C(=O)N2CCCC2)cc1 | -14 | 2.14
Cc1ccc2c(c1)C(C)(C)[C@]1(C)NC(=O)CCN21 | 0 | 0.03
CC[C@H](C)NC(=O)C(=O)Nc1ccc(Cl)c(Cl)c1 | -2 | 0.23
Cc1oc(-c2ccc(C(=O)NCCC(C)C)cc2)nc1CN1CCc2ccccc21 | -1 | 0.08
O=C(CCCc1ccccc1)NOCc1nnc(-c2ccccc2)o1 | 1 | -0.18
CC(C)n1cc2c(n1)[C@@H](NS(=O)(=O)c1cccnc1)CCC2 | -10 | 1.26
C[C@H](CO)N(C)S(=O)(=O)c1cccc(N(C)C)c1 | -5 | 0.67
C=CC1CCN(C(=O)NO[C@@H]2CCCCO2)CC1 | -5 | 0.72
Cc1ccc(-c2csc(-c3cccn3CC(=O)N3CCCCCC3)n2)cc1 | -7 | 0.97
Cc1cc(C(=O)N2CC[C@@](O)(c3ccccc3)C2)no1 | -15 | 1.97
COc1cc(-c2noc(C3CC3)n2)ccc1OCc1ccc(C)cc1 | -12 | 1.17
C#CCN1CCCCC1C(=O)N(C)CC1OCCc2ccccc21 (stereo unspecified) | 2 | -0.22
COc1ccccc1N1CCN(C(=O)C[C@@H]2O[C@H](CNC(=O)c3cccc(F)c3)[C@@H](O)[C@H]2O)CC1 | 24 | -2.74
Cc1ccccc1CNC(=O)C[C@H]1CCN(S(C)(=O)=O)C1 | -6 | 0.95
Cc1ccc(CNCc2cccs2)s1 | -12 | 1.39
C1CN(Cc2nnnn2C2CC2)CCN(Cc2nnnn2C2CC2)C1 | -8 | 1.19
